{"source": "the supplement of paper PMC5499739", "note": "In all, about 16,000 sequences were measured (“Z-score”: median about -0.37, highest 2% from about 3.2 on). Some of the results follow.", "data": [{"tested_on": "RBM10 RRM1-ZnF (GST-tagged construct)", "assay": "RNAcompete 7-mer binding Z-score; higher = stronger binding preference", "outline": "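GST-tagged RBM10 constructs (20 pmol) and a designed pool of 241 399 RNAs up to 41 nt (1.5 nmol) were allowed to bind for 30 min at 4°C in 1 ml Hepes pH 7.8 buffer with glutathione Sepharose beads. After four 2-min washes at 4°C, bound RNA was identified by microarray hybridisation. Enrichment was scored per heptamer motif as a one-sided Z-score across the probes containing it.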", "values": [{"sequence": "UGCAAGA", "RNAcompete 7-mer binding Z-score": -0.0317}, {"sequence": "GUAUAUU", "RNAcompete 7-mer binding Z-score": -0.191}, {"sequence": "AAGGUGG", "RNAcompete 7-mer binding Z-score": 4.39}, {"sequence": "GUCAAAC", "RNAcompete 7-mer binding Z-score": -0.474}, {"sequence": "GUCGAAA", "RNAcompete 7-mer binding Z-score": -0.126}, {"sequence": "UUAUACC", "RNAcompete 7-mer binding Z-score": -0.834}, {"sequence": "AUAGCCC", "RNAcompete 7-mer binding Z-score": -0.714}, {"sequence": "AGGUAAU", "RNAcompete 7-mer binding Z-score": 1.32}, {"sequence": "GGGUAGG", "RNAcompete 7-mer binding Z-score": 4.65}, {"sequence": "AACCUCC", "RNAcompete 7-mer binding Z-score": -0.743}, {"sequence": "UAGCACA", "RNAcompete 7-mer binding Z-score": -0.373}, {"sequence": "CAGAUUA", "RNAcompete 7-mer binding Z-score": -0.347}, {"sequence": "AUUAGUU", "RNAcompete 7-mer binding Z-score": -0.441}, {"sequence": "GGGUUAC", "RNAcompete 7-mer binding Z-score": 2.16}, {"sequence": "CUGACAC", "RNAcompete 7-mer binding Z-score": -0.659}, {"sequence": "GACGCAA", "RNAcompete 7-mer binding Z-score": -0.243}, {"sequence": "UAUGUCC", "RNAcompete 7-mer binding Z-score": -0.776}, {"sequence": "CCUCAAC", "RNAcompete 7-mer binding Z-score": -0.818}, {"sequence": "GCGCGGG", "RNAcompete 7-mer binding Z-score": 1.8}, {"sequence": "ACCAAAC", "RNAcompete 7-mer binding Z-score": -0.646}, {"sequence": "UUUCCGA", "RNAcompete 7-mer binding Z-score": -0.646}, {"sequence": "UGCGCUC", "RNAcompete 7-mer binding Z-score": -0.578}, {"sequence": "AGUAAUA", "RNAcompete 7-mer binding Z-score": -0.285}, {"sequence": "AUAGAGG", "RNAcompete 7-mer binding Z-score": 1.55}, {"sequence": "ACAAGUA", "RNAcompete 7-mer binding Z-score": -0.201}, {"sequence": "GGGUGAA", "RNAcompete 7-mer binding Z-score": 3.87}, {"sequence": "GACGGUU", "RNAcompete 7-mer binding Z-score": 0.982}, {"sequence": "AAAGAGA", "RNAcompete 7-mer binding Z-score": 0.865}, {"sequence": "AACAUUA", "RNAcompete 7-mer binding Z-score": -0.389}, {"sequence": "CCACCAU", "RNAcompete 7-mer binding Z-score": -0.535}, {"sequence": "UGGCGGU", "RNAcompete 7-mer binding Z-score": 1.49}, {"sequence": "UACCUAG", "RNAcompete 7-mer binding Z-score": -0.766}, {"sequence": "AUUAACC", "RNAcompete 7-mer binding Z-score": -0.646}, {"sequence": "GCGACUG", "RNAcompete 7-mer binding Z-score": -0.0479}, {"sequence": "GCGUUGG", "RNAcompete 7-mer binding Z-score": 1.4}, {"sequence": "UAUCGGU", "RNAcompete 7-mer binding Z-score": -0.194}, {"sequence": "ACGGGGU", "RNAcompete 7-mer binding Z-score": 4.07}, {"sequence": "ACGGUGC", "RNAcompete 7-mer binding Z-score": 0.391}, {"sequence": "UGUGUCC", "RNAcompete 7-mer binding Z-score": -0.415}, {"sequence": "CCACUCC", "RNAcompete 7-mer binding Z-score": -0.662}, {"sequence": "GACGGAU", "RNAcompete 7-mer binding Z-score": 1.09}, {"sequence": "CAAAGCG", "RNAcompete 7-mer binding Z-score": -0.0902}, {"sequence": "CGUUAGG", "RNAcompete 7-mer binding Z-score": 0.465}, {"sequence": "ACCAGAA", "RNAcompete 7-mer binding Z-score": -0.253}, {"sequence": "CGGUACU", "RNAcompete 7-mer binding Z-score": -0.162}, {"sequence": "UACAUGU", "RNAcompete 7-mer binding Z-score": -0.162}, {"sequence": "CGUCAGA", "RNAcompete 7-mer binding Z-score": -0.548}, {"sequence": "UAUUACG", "RNAcompete 7-mer binding Z-score": -0.132}, {"sequence": "ACCCCAC", "RNAcompete 7-mer binding Z-score": -0.379}, {"sequence": "CACGUGU", "RNAcompete 7-mer binding Z-score": -0.522}, {"sequence": "AGCCCCC", "RNAcompete 7-mer binding Z-score": -0.129}, {"sequence": "GCUAUUG", "RNAcompete 7-mer binding Z-score": -0.405}, {"sequence": "GCGAAUA", "RNAcompete 7-mer binding Z-score": -0.0317}, {"sequence": "UAUUUGG", "RNAcompete 7-mer binding Z-score": -0.0999}, {"sequence": "GGUAGAC", "RNAcompete 7-mer binding Z-score": 1.99}, {"sequence": "CCUCAGA", "RNAcompete 7-mer binding Z-score": -0.629}, {"sequence": "CACAUUC", "RNAcompete 7-mer binding Z-score": -0.698}, {"sequence": "CUUUUCC", "RNAcompete 7-mer binding Z-score": -0.893}, {"sequence": "CGGCAUG", "RNAcompete 7-mer binding Z-score": 0.342}, {"sequence": "GCCUUGU", "RNAcompete 7-mer binding Z-score": -0.717}, {"sequence": "CUAACAU", "RNAcompete 7-mer binding Z-score": -0.636}, {"sequence": "CGCCACU", "RNAcompete 7-mer binding Z-score": -0.604}, {"sequence": "ACGGUCA", "RNAcompete 7-mer binding Z-score": 0.163}, {"sequence": "CGGGCUA", "RNAcompete 7-mer binding Z-score": 0.599}, {"sequence": "CUGAAGU", "RNAcompete 7-mer binding Z-score": -0.266}, {"sequence": "UUGCUUA", "RNAcompete 7-mer binding Z-score": -0.737}, {"sequence": "UGCCGGG", "RNAcompete 7-mer binding Z-score": 0.527}, {"sequence": "ACCUAAC", "RNAcompete 7-mer binding Z-score": -0.802}, {"sequence": "GGUAGGA", "RNAcompete 7-mer binding Z-score": 3.4}, {"sequence": "AGCACAU", "RNAcompete 7-mer binding Z-score": -0.513}, {"sequence": "CAUUGGU", "RNAcompete 7-mer binding Z-score": -0.00571}, {"sequence": "UGCGUCG", "RNAcompete 7-mer binding Z-score": -0.106}, {"sequence": "UUUACCA", "RNAcompete 7-mer binding Z-score": -0.834}, {"sequence": "ACUCAUU", "RNAcompete 7-mer binding Z-score": -0.971}, {"sequence": "CGCUAGU", "RNAcompete 7-mer binding Z-score": -0.532}, {"sequence": "GUGGCCA", "RNAcompete 7-mer binding Z-score": 0.16}, {"sequence": "CUGUUCU", "RNAcompete 7-mer binding Z-score": -0.847}, {"sequence": "UUGCGUG", "RNAcompete 7-mer binding Z-score": 0.095}, {"sequence": "AUGAGGU", "RNAcompete 7-mer binding Z-score": 1.9}, {"sequence": "UCUCGUG", "RNAcompete 7-mer binding Z-score": -0.347}, {"sequence": "GAACGGU", "RNAcompete 7-mer binding Z-score": 1.64}, {"sequence": "CGUCUGG", "RNAcompete 7-mer binding Z-score": -0.116}, {"sequence": "GUAUAGC", "RNAcompete 7-mer binding Z-score": 0.348}, {"sequence": "UAUGCUG", "RNAcompete 7-mer binding Z-score": -0.152}, {"sequence": "GACCGAC", "RNAcompete 7-mer binding Z-score": -0.672}, {"sequence": "GCUCCGU", "RNAcompete 7-mer binding Z-score": -0.714}, {"sequence": "AUCCUUU", "RNAcompete 7-mer binding Z-score": -0.919}, {"sequence": "CACGUGC", "RNAcompete 7-mer binding Z-score": -0.379}, {"sequence": "CUACCUC", "RNAcompete 7-mer binding Z-score": -0.782}, {"sequence": "CUCGUAG", "RNAcompete 7-mer binding Z-score": -0.496}, {"sequence": "CCUGUAG", "RNAcompete 7-mer binding Z-score": -0.415}, {"sequence": "CACAGCC", "RNAcompete 7-mer binding Z-score": -0.467}, {"sequence": "GUUCGUA", "RNAcompete 7-mer binding Z-score": -0.526}, {"sequence": "ACCAGUC", "RNAcompete 7-mer binding Z-score": -0.626}, {"sequence": "CGCUGGG", "RNAcompete 7-mer binding Z-score": 1.27}, {"sequence": "AGGGUAC", "RNAcompete 7-mer binding Z-score": 2.1}, {"sequence": "UAAAUGC", "RNAcompete 7-mer binding Z-score": -0.246}, {"sequence": "AAAACUU", "RNAcompete 7-mer binding Z-score": -0.652}, {"sequence": "AGACGCG", "RNAcompete 7-mer binding Z-score": -0.418}, {"sequence": "GUCCGAU", "RNAcompete 7-mer binding Z-score": -0.483}]}]}
